Data taken from PMC12820563.
This is one part of the list. The list includes weakly bound sequences.

Target: T1, MBP-FoxP3dN (UniProt Q99JB6)
T1 sequence: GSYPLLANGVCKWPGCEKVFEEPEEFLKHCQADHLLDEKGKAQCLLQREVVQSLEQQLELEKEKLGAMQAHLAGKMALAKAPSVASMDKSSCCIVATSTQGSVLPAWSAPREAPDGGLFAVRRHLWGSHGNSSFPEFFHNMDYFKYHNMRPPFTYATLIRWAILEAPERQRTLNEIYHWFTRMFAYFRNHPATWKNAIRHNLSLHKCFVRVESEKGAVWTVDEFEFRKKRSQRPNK
Experiment: PD-seq (MBP pull-down with sequencing)
Conditions: 20 mM Tris-HCl pH 7.5, 100 mM NaCl, 1.5 mM MgCl2, 0.4 uM protein, 0.1 uM dsDNA library, 30 min, room temperature, amylose pull-down; high values mean tight binding; double strand, one strand shown

Sequence	binding signal (RPM ratio (pull-down/input))
GATGATTGTTCTCCCAGCTGATGAATTTGCCGACTCGAGTAAACAAATTTTCCTAATCTTTCTGTTCAAGCGCCATCTAC	0.401
GATGATTGTTCTCCCAGCTGATGAATTAGGCCGCTCGAGTAAACAAATTTTCCTAATCTTTCTGTTCAAGCGCCATCTAC	1.23
GATGATTGTTCTCCCAGCTGATGAATTAAGTTGATCGAGTAAACAAATTTTCCTAATCTTTCTGTTCAAGCGCCATCTAC	2.52
GATGATTGTTCTCCCAGCTGATGAATTTGAGGACTCGAGTAAACAAATTTTCCTAATCTTTCTGTTCAAGCGCCATCTAC	0.446
GATGATTGTTCTCCCAGCTGATGAATTTGCGATTTCGAGTAAACAAATTTTCCTAATCTTTCTGTTCAAGCGCCATCTAC	1.58
GATGATTGTTCTCCCAGCTGATGAATTCTAATGGTCGAGTAAACAAATTTTCCTAATCTTTCTGTTCAAGCGCCATCTAC	0.513
GATGATTGTTCTCCCAGCTGATGAATTCTGTTGGTCGAGTAAACAAATTTTCCTAATCTTTCTGTTCAAGCGCCATCTAC	5.56
GATGATTGTTCTCCCAGCTGATGAATTTCAATATTCGAGTAAACAAATTTTCCTAATCTTTCTGTTCAAGCGCCATCTAC	0.823
GATGATTGTTCTCCCAGCTGATGAATTCGGTCCCTCGAGTAAACAAATTTTCCTAATCTTTCTGTTCAAGCGCCATCTAC	0.386
GATGATTGTTCTCCCAGCTGATGAATTCGGCACTTCGAGTAAACAAATTTTCCTAATCTTTCTGTTCAAGCGCCATCTAC	0.811
GATGATTGTTCTCCCAGCTGATGAATTGTCCGCCTCGAGTAAACAAATTTTCCTAATCTTTCTGTTCAAGCGCCATCTAC	0.568
GATGATTGTTCTCCCAGCTGATGAATTCGAGGTCTCGAGTAAACAAATTTTCCTAATCTTTCTGTTCAAGCGCCATCTAC	0.534
GATGATTGTTCTCCCAGCTGATGAATTCCCACGTTCGAGTAAACAAATTTTCCTAATCTTTCTGTTCAAGCGCCATCTAC	0.282
GATGATTGTTCTCCCAGCTGATGAATTGTTCCCCTCGAGTAAACAAATTTTCCTAATCTTTCTGTTCAAGCGCCATCTAC	0.362
GATGATTGTTCTCCCAGCTGATGAATTGGAATGTTCGAGTAAACAAATTTTCCTAATCTTTCTGTTCAAGCGCCATCTAC	0.569
GATGATTGTTCTCCCAGCTGATGAATTGCCCGGATCGAGTAAACAAATTTTCCTAATCTTTCTGTTCAAGCGCCATCTAC	0.298
GATGATTGTTCTCCCAGCTGATGAATTCCGCTGCTCGAGTAAACAAATTTTCCTAATCTTTCTGTTCAAGCGCCATCTAC	0.62
GATGATTGTTCTCCCAGCTGATGAATTGTATGTTTCGAGTAAACAAATTTTCCTAATCTTTCTGTTCAAGCGCCATCTAC	3.89
